Source: the RNAGym collection of RNA variant scans (doi:10.1101/gad.245936.114)
Variants at the floor of the assay are shown more often than the library holds them.

B1: tRNA (parent)
chain: CUCUCGGUAGCCAAGUUGGUUUAAGGCGCAAGACUUUAAUUUAUCACUACGAAAUCUUGAGAUCGGGCGUUCGACUCGCCCCCGGGAGAUUUUUUCCUCGAGCAA

Variants of: B1
Assay: nonsense suppression (GFP-seq) (ratio to wild type); higher = more function; SUP4oc tRNA, yeast GFP reporter sort-seq
Method in brief: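 Raffinose/galactose medium with 80 mg/L adenine was used to grow yeast carrying genome-integrated tRNA variants (~3% random-mutation library), RFP, and a galactose-driven GFP ochre reporter. Cells went into GFP/RFP bins, which were Illumina-sequenced, and variants with ≥100 reads and ≥30 cells were scored. Nonsense suppression (GFPSEQ) is the per-bin median GFP/RFP weighted by estimated cell share and expressed relative to the unmutated parent tRNA.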

CUCUCGGUAGCCAAGUUGGUUUAAGGCGCAAGACUUUAAUUUAUCACUACGAAAUCUUGGGAUCGGGCGUUCGACUCGCCCCAGGAACAUUUUUUCCUCGAGCAA and CUCUCGGUAGCCAAGUUGGUUUAAGGCGCAAGACUUUAAUUUAUCACUACGAAAUCUUGUGAUCGGGCGUUCGACUCGGCCCCGGGUGAUUUUUUCCUCGAGCAA cannot be ordered by nonsense suppression: at most 0.026 for the first, at most 0.026 for the second.

CUCUCGGUAGCCAAGUUGGUUUAAGGCGCAAGACUUUAAUUUAUCACUACGAAAUCUUGCGAUCGGGCGUGCGACUCGCCCCCAUGAGAUUUUUUCCUCGAGCAA and CUCUCGGUAGCCAAGUUGGUUUAAGGCGCAAGACUUUAAUUUAUCACUACGAAAUCUUGGGAUCGGGCGUUGGACACGCCCCCGGGAGAUUUUUUCCUCGAGCAA cannot be ordered by nonsense suppression: at most 0.026 for the first, at most 0.026 for the second.

Going from CUCUCGGUAGCCAAGUUGGUUUAAGGCGCAAGACUUUAAUUUAUCACUACGAAAUCUUGGGAUCGGGCGUCCGACUCGCCCCCGGGAGAUUUUUUCCUCGAGCAA to CUCUCGGUAGCCAAGUUGGUUUAAGGCGCAAGACUUUAAUUUAUCACUACGAAAUCUUGUGAUCGGGCGUUUGACUCGCCCCCGGGAGAUUUUUUCCUCGAGCAA, the nonsense suppression falls from 0.0362 to at most 0.026.

CUCUCGGUAGCCAAGUUGGUUUAAGGCGCAAGACUUUAAUUUAUCACUACGAAAUCUUGCGAUCGGGCGCGCGACUCGCCCCCGGGAGAUUUUUUCCUCGAGCAA and CUCUCGGUAGCCAAGUUGGUUUAAGGCGCAAGACUUUAAUUUAUCACUACGAAAUCUUGCGAUCGGGCGUUCGAUUCUCCCCCGGGAGAUUUUUUCCUCGAGCAA cannot be ordered by nonsense suppression: at most 0.026 for the first, at most 0.026 for the second.

CUCUCGGUAGCCAAGUUGGUUUAAGGCGCAAGACUUUAAUUUAUCACUACGAAAUCUUGCGAUCGGGCGUAGGACUCGCCCCCGGGAGAUUUUUUCCUCGAGCAA and CUCUCGGUAGCCAAGUUGGUUUAAGGCGCAAGACUUUAAUUUAUCACUACGAAAUCUUGGGAUCGGGCGUUCGACUCGCCCCCGGAAGAUUUUUUCCUCGAGCAA cannot be ordered by nonsense suppression: at most 0.026 for the first, at most 0.026 for the second.

CUCUCGGUAGCCAAGUUGGUUUAAGGCGCAAGACUUUAAUUUAUCACUACGAAAUCUUGGGAGCGGGCGUUCGACUCGCCCCCGGGAGAUUUUUUCCUCGAGCAA and CUCUCGGUAGCCAAGUUGGUUUAAGGCGCAAGACUUUAAUUUAUCACUACGAAAUCUUGGGAUCGGGCGCUCCACUCGCCUCCGGGAGAUUUUUUCCUCGAGCAA cannot be ordered by nonsense suppression: at most 0.026 for the first, at most 0.026 for the second.

CUCUCGGUAGCCAAGUUGGUUUAAGGCGCAAGACUUUAAUUUAUCACUACGAAAUCUUGGGAUCCGGCGUUCGACUCGCCCCCGGGAGAUUUUUUCCUCGAGCAA and CUCUCGGUAGCCAAGUUGGUUUAAGGCGCAAGACUUUAAUUUAUCACUACGAAAUCUUGUGAUAGGGCGUUCGACUCGCCCCCGGGAGAUUUUUUCCUCGAGCAA cannot be ordered by nonsense suppression: at most 0.026 for the first, at most 0.026 for the second.

CUCUCGGUAGCCAAGUUGGUUUAAGGCGCAAGACUUUAAUUUAUCACUACGAAAUCUUGUGAUCGGGAGUUCGACUCGCCCCCGGGAGAUUUUUUCCUCGAGCAA and CUCUCGGUAGCCAAGUUGGUUUAAGGCGCAAGACUUUAAUUUAUCACUACGAAAUCUUGUGAUCGGGCGUUCGACUCGGCCCCGGGAGAUUUUUUCCUCGAGCAA cannot be ordered by nonsense suppression: at most 0.026 for the first, at most 0.026 for the second.

CUCUCGGUAGCCAAGUUGGUUUAAGGCGCAAGACUUUAAUUUAUCACUACGAAAUCUUGCGAUCUGGCGUUCGACUCGCCCCCGGGAGAUUUUUUCCUCGAGCAA and CUCUCGGUAGCCAAGUUGGUUUAAGGCGCAAGACUUUAAUUUAUCACUACGAAAUCUUGCGAUCAGGCGUUCGACUCGCCCCCGGGAGAUUUUUUCCUCGAGCAA cannot be ordered by nonsense suppression: at most 0.026 for the first, at most 0.026 for the second.

CUCUCGGUAGCCAAGUUGGUUUAAGGCGCAAGACUUUAAUUUAUCACUACGAAAUCUUGCUAUCGGGCGUUCGACUCGUCCCCGGGAGAUUUUUUCCUCGAGCAA and CUCUCGGUAGCCAAGUUGGUUUAAGGCGCAAGACUUUAAUUUAUCACUACGAAAUCUUGCGAUCGGGCGUUCGACUCGCACCCGGGAGAUUUUUUCCUCGAGCAA cannot be ordered by nonsense suppression: at most 0.026 for the first, at most 0.026 for the second.

Going from CUCUCGGUAGCCAAGUUGGUUUAAGGCGCAAGACUUUAAUUUAUCACUACGAAAUCUUGGGAUCGGGCGUUCGACUCGCCUCCGGGAGAUUUUUUCCUCGAGCAA to CUCUCGGUAGCCAAGUUGGUUUAAGGCGCAAGACUUUAAUUUAUCACUACGAAAUCUUGGGAUCGGGCGUUCGACUCGCCGCCGGGAGAUUUUUUCCUCGAGCAA, the nonsense suppression falls from 0.0488 to at most 0.026.

CUCUCGGUAGCCAAGUUGGUUUAAGGCGCAAGACUUUAAUUUAUCACUACGAAAUCUUGGGAUCGGCCGUUCGACUGGCCCGCAGGAGAUUUUUUCCUCGAGCAA and CUCUCGGUAGCCAAGUUGGUUUAAGGCGCAAGACUUUAAUUUAUCACUACGAAAUCUUGGGAUCGGGCUUUCGACUCGCCCCCGGGAGAUUUUUUCCUCGAGCAA cannot be ordered by nonsense suppression: at most 0.026 for the first, at most 0.026 for the second.

Going from CUCUCGGUAGCCAAGUUGGUUUAAGGCGCAAGACUUUAAUUUAUCACUACGAAAUCUUGGGAUCGGGCGUUCGACUCACCCCCGGGAGAUUUUUUCCUCGAGCAA to CUCUCGGUAGCCAAGUUGGUUUAAGGCGCAAGACUUUAAUUUAUCACUACGAAAUCUUGGGAUCGGGCGUUCGAAUCGCCCCCGGGAGAUUUUUUCCUCGAGCAA, the nonsense suppression rises from 0.0542 to 0.976.

First: CUCUCGGUAGCCAAGUUGGUUUAAGGCGCAAGACUUUAAUUUAUCACUACGAAAUCUUGCGAUCGGGCGUUCGACUCGCCCCCCGGAGAUUUUUUCCUCGAGCAA
Second: CUCUCGGUAGCCAAGUUGGUUUAAGGCGCAAGACUUUAAUUUAUCACUACGAAAUCUUGCGAUCGGGCGUUCCACUCGCCACCGGGAGAUUUUUUCCUCGAGCAA
The nonsense suppression of the first is higher: 0.0911 for the first, at most 0.026 for the second.

CUCUCGGUAGCCAAGUUGGUUUAAGGCGCAAGACUUUAAUUUAUCACUACGAAAUCUUGGGGCCGAGCGUUCGACUCGCCCCCGGGAGAUUUUUUCCUCGAGCAA and CUCUCGGUAGCCAAGUUGGUUUAAGGCGCAAGACUUUAAUUUAUCACUACGAAAUCUUGCGAUCGUGCGUUCGACUCGCCCCCAGGAAAUUUUUUCCUCGAGCAA cannot be ordered by nonsense suppression: at most 0.026 for the first, at most 0.026 for the second.

First: CUCUCGGUAGCCAAGUUGGUUUAAGGCGCAAGACUUUAAUUUAUCACUACGAAAUCUUGGGAUCCGGCGUUCGCCUCGCCCCCGGGAGAUUUUUUCCUCGAGCAA
Second: CUCUCGGUAGCCAAGUUGGUUUAAGGCGCAAGACUUUAAUUUAUCACUACGAAAUCUUGGGAUCGGGCGUUCGACUCGCCCCCGUGAGAUUUUUUCCUCGAGCAA
The nonsense suppression of the first is lower: at most 0.026 for the first, 0.138 for the second.

CUCUCGGUAGCCAAGUUGGUUUAAGGCGCAAGACUUUAAUUUAUCACUACGAAAUCUUGCGAUCGGGCGUUCGACUCGCCCCCGGGAAAUUUUUUCCUCGAGCAA and CUCUCGGUAGCCAAGUUGGUUUAAGGCGCAAGACUUUAAUUUAUCACUACGAAAUCUUGGGAUCGAGCGUUCGACUCGCCCCCGGGAGAUUUUUUCCUCGAGCAA cannot be ordered by nonsense suppression: at most 0.026 for the first, at most 0.026 for the second.

Compared with CUCUCGGUAGCCAAGUUGGUUUAAGGCGCAAGACUUUAAUUUAUCACUACGAAAUCUUGGGAUCGUGCGUGCGACUCGCCCCCGGGAGAUUUUUUCCUCGAGCAA, CUCUCGGUAGCCAAGUUGGUUUAAGGCGCAAGACUUUAAUUUAUCACUACGAAAUCUUGUGAUCGGGCGUUCGACUCGCCCCCGGGGGAUUUUUUCCUCGAGCAA is higher in nonsense suppression: at most 0.026 for the first, 1.02 for the second.

First: CUCUCGGUAGCCAAGUUGGUUUAAGGCGCAAGACUUUAAUUUAUCACUACGAAAUCUUGCGAUCGGGCGUUCGAUUCGCCCCCGGGAGAUUUUUUCCUCGAGCAA
Second: CUCUCGGUAGCCAAGUUGGUUUAAGGCGCAAGACUUUAAUUUAUCACUACGAAAUCUUGGGAUCGGGCGUUCGACUCGCCCCCGGGAGUUUUUUUCCUCGAGCAA
The nonsense suppression of the first is higher: 0.167 for the first, 0.0291 for the second.

CUCUCGGUAGCCAAGUUGGUUUAAGGCGCAAGACUUUAAUUUAUCACUACGAAAUCUUGCGAUGGGGCGUUCGACCCGCCCCCGGGAGAUUUUUUCCUCGAGCAA and CUCUCGGUAGCCAAGUUGGUUUAAGGCGCAAGACUUUAAUUUAUCACUACGAAAUCUUGGGAUCGGGCGUUCGACUCGCCCGCGGGAGAUUUUUUCCUCGAGCAA cannot be ordered by nonsense suppression: at most 0.026 for the first, at most 0.026 for the second.

CUCUCGGUAGCCAAGUUGGUUUAAGGCGCAAGACUUUAAUUUAUCACUACGAAAUCUUGCGAGCGGGCGGUCGACUCGCCCCCGGGAGAUUUUUUCCUCGAGCAA and CUCUCGGUAGCCAAGUUGGUUUAAGGCGCAAGACUUUAAUUUAUCACUACGAAAUCUUGGGAUCGGGAGUUCGACUCGCCCCCGGGACAUUUUUUCCUCGAGCAA cannot be ordered by nonsense suppression: at most 0.026 for the first, at most 0.026 for the second.

CUCUCGGUAGCCAAGUUGGUUUAAGGCGCAAGACUUUAAUUUAUCACUACGAAAUCUUGCGAUCGGGCGUUCGACUCGCCCCCUUGAGAUUUUUUCCUCGAGCAA and CUCUCGGUAGCCAAGUUGGUUUAAGGCGCAAGACUUUAAUUUAUCACUACGAAAUCUUGCGAUCGGGCGUUCGACUCGGCCCCGGGAGAUUUUUUCCUCGAGCAA cannot be ordered by nonsense suppression: at most 0.026 for the first, at most 0.026 for the second.

First: CUCUCGGUAGCCAAGUUGGUUUAAGGCGCAAGACUUUAAUUUAUCACUACGAAAUCUUGCGAUCGGGCGUUCGACUCGUCCCCGGGAGAUUUUUUCCUCGAGCAA
Second: CUCUCGGUAGCCAAGUUGGUUUAAGGCGCAAGACUUUAAUUUAUCACUACGAAAUCUUGGGAUCGGGCGCUCGACUCGCCCCCGGGAGAUUUUUUCCUCGAGCAA
The nonsense suppression of the first is higher: 0.14 for the first, at most 0.026 for the second.

CUCUCGGUAGCCAAGUUGGUUUAAGGCGCAAGACUUUAAUUUAUCACUACGAAAUCUUGCGAUCGGGCGUUCGACUCGCCGCCGGGAGAUUUUUUCCUCGAGCAA and CUCUCGGUAGCCAAGUUGGUUUAAGGCGCAAGACUUUAAUUUAUCACUACGAAAUCUUGCGACCGGGGGUUCGACUCGCCCCCGGGAGAUUUUUUCCUCGAGCAA cannot be ordered by nonsense suppression: at most 0.026 for the first, at most 0.026 for the second.

CUCUCGGUAGCCAAGUUGGUUUAAGGCGCAAGACUUUAAUUUAUCACUACGAAAUCUUGCGAUCGGGCGUUCUACUCGCCACCGGGAGAUUUUUUCCUCGAGCAA and CUCUCGGUAGCCAAGUUGGUUUAAGGCGCAAGACUUUAAUUUAUCACUACGAAAUCUUGCGAUCGGGCGAUCGACUCGCCCCCGGGAGAUUUUUUCCUCGAGCAA cannot be ordered by nonsense suppression: at most 0.026 for the first, at most 0.026 for the second.

Compared with CUCUCGGUAGCCAAGUUGGUUUAAGGCGCAAGACUUUAAUUUAUCACUACGAAAUCUUGCGAUCGGGCGCUCGACUCGCCCCCGGGAGAUUUUUUCCUCGAGCAA, CUCUCGGUAGCCAAGUUGGUUUAAGGCGCAAGACUUUAAUUUAUCACUACGAAAUCUUGUGAUCGGGCGUUCGACUCGCCCCCGGGAGAUUUUUUCCUCGAGCAA is higher in nonsense suppression: at most 0.026 for the first, 0.984 for the second.

Going from CUCUCGGUAGCCAAGUUGGUUUAAGGCGCAAGACUUUAAUUUAUCACUACGAAAUCUUGGGAUCGGGCGUUCGACUCGCCCCCGGGAGAUUUUUUCCUCGAGCAA to CUCUCGGUAGCCAAGUUGGUUUAAGGCGCAAGACUUUAAUUUAUCACUACGAAAUCUUGCGAUCGGGCGUUCGACUCGCCCCCGCGAGAUUUUUUCCUCGAGCAA, the nonsense suppression falls from 1.14 to 0.0595.
